Experimental data reported in patent publication US20220153864A1.

B1: CD137 specific lipocalin mutein (Fc fusion) (SEQ ID NO: 98) (Fc fusion)
chain: [omitted - human IgG4 Fc with S228P F234A L235A (EU numbers)]GGGGSGGGGSGGGGSQDSTSDLIPAPPLSKVPLQQNFQDNQFHGKWYVVGQAGNIRLREDKDPIKMMATIYELKEDKSYDVTMVKFDDKKCMYDIWTFVPGSQPGEFTLGKIKSFPGHTSSLVRVVSTNYNQHAMVFFKFVFQNREEFYITLYGRTKELTSELKENFIRFSKSLGLPENHIVFPVPIDQCIDG
B2: previously known CD137/GPC3 bispecific fusion protein (SEQ ID NO: 83) (protein)
chain: QDSTSDLIPAPPLSKVPLQQNFQDNQFQGKWYVVGRAGNVGLREDKDPPKMWATIYELKEDKSYDVTNVRFARKKCTYSIGTFVPGSQPGEFTLGQIKSEPGGTANLVRVVSTNYNQHAMVFFKEVYQNREIFFIILYGRTKELTSELKENFIRFSKSLGLPENHIVFPVPIDQCIDGGGGGSGGGGSGGGGS[omitted - human IgG4 Fc with S228P F234A L235A (EU numbers)]GGGGSGGGGSGGGGSQDSTSDLIPAPPLSKVPLQQNFQDNQFHGKWYVVGQAGNIRLREDKDPIKMMATIYELKEDKSYDVTMVKFDDKKCMYDIWTFVPGSQPGEFTLGKIKSFPGHTSSLVRVVSTNYNQHAMVFFKFVFQNREEFYITLYGRTKELTSELKENFIRFSKSLGLPENHIVFPVPIDQCIDG

Legend:
[1] = biological target: 32 different targets including GPC3, GPC5, and other TNF receptor proteins; assay: off-target ELISA on 32 coated targets, sum of the ratios at 100 nM and 10 nM
[2] = biological target: 32 different targets including GPC3, GPC5, and other TNF receptor proteins; assay: off-target ELISA on 32 coated targets, binder at 10 nM, signals normalized to control antibody SEQ ID NOs: 106 and 107 and summed
[3] = biological target: 32 different targets including GPC3, GPC5, and other TNF receptor proteins; assay: off-target ELISA on 32 coated targets, binder at 100 nM, signals normalized to control antibody SEQ ID NOs: 106 and 107 and summed

Row | Binder | sum of cumulative binding ratios [1] | cumulative binding ratio [2] | cumulative binding ratio [3]
1 | B1 | 70 | 32 | 38
2 | B2 | 352 | 144 | 207
